Measured values published in the antibiotic and cytotoxicity screens of Wong et al. (2023).
The other results are listed elsewhere or left out.

Key:
HSkMC = human skeletal muscle cells; assay: cytotoxicity call (relative viability < 0.9); conditions: 10 µM
HepG2 = assay: cytotoxicity call (relative viability < 0.9); conditions: 10 µM
S. aureus RN4220 = assay: growth inhibition call (relative growth <= 0.2); conditions: 50 µM

Structure (SMILES)	cytotoxicity call (HSkMC)	cytotoxicity call (HepG2)	growth inhibition call (S. aureus RN4220)
Cc1noc(C)c1NC(=O)Nc1ccc2c(c1)C(=O)N([C@H](C)CO)C[C@H](C)[C@@H](CN(C)C(=O)Nc1ccc(C(F)(F)F)cc1)OCCCC[C@@H](C)O2	inactive	inactive	inactive
CC(C)NC(=O)Nc1ccc2c(c1)C(=O)N([C@@H](C)CO)C[C@H](C)[C@@H](CN(C)Cc1ccc(Cl)c(Cl)c1)OCCCC[C@@H](C)O2	inactive	inactive	inactive
C[C@H]1CN([C@@H](C)CO)C(=O)Cc2cc(NC(=O)Cn3cnnn3)ccc2O[C@H]1CN(C)S(C)(=O)=O	inactive	inactive	inactive
CN1CCN(C(=O)C[C@@H]2CC[C@@H]3[C@H](COC[C@H](O)CN3Cc3ccc4c(c3)OCO4)O2)CC1	inactive	inactive	inactive
COc1ccc(CN(C)C[C@@H]2Oc3ccc(NC(=O)CCCCCC(=O)Nc4ccccc4N)cc3CC(=O)N([C@@H](C)CO)C[C@@H]2C)cc1	inactive	inactive	inactive
C[C@@H]1CN([C@@H](C)CO)S(=O)(=O)c2ccc(C#CCN(C)C)cc2O[C@@H]1CN(C)C(=O)C1CCCCC1	inactive	inactive	inactive
COc1ccc(S(=O)(=O)N(C)C[C@@H]2Oc3c(NC(=O)c4cnccn4)cccc3C(=O)N([C@@H](C)CO)C[C@H]2C)cc1	inactive	inactive	inactive
O=C(C[C@@H]1CC[C@@H]2[C@H](COC[C@H](O)CN2S(=O)(=O)c2cccc(F)c2)O1)NCCCN1CCOCC1	inactive	inactive	inactive
COC(=O)[C@H](Cc1ccc(-n2cc(CCC(=O)NO)nn2)cc1)N[C@H](/C=C/C1CC1)[C@@H](O)Cc1ccccc1	inactive	inactive	inactive
C[C@@H]1CN([C@@H](C)CO)C(=O)c2cc(NS(C)(=O)=O)ccc2O[C@H]1CN(C)C(=O)Nc1ccc(F)cc1	inactive	inactive	inactive
C[C@H](CO)N1C[C@H](C)[C@H](CN(C)S(=O)(=O)c2cccs2)Oc2ncc(C#Cc3ccc(F)cc3)cc2C1=O	inactive	inactive	inactive
[O-][n+]1cccc(CO)c1	inactive	inactive	inactive
CC(C)(C)C(=O)CC1(O)CCCCC1	inactive	inactive	inactive
C[C@H](N)CCCP(=O)(O)O	inactive	inactive	inactive
C[C@@H]1CN([C@H](C)CO)C(=O)c2cccc(NC(=O)Nc3cccc4ccccc34)c2O[C@@H]1CN(C)Cc1ccc(Cl)c(Cl)c1	inactive	inactive	inactive
CN1CCN(C(=O)[C@@H]2[C@@H](C(=O)O)[C@H]3CC[C@H]2O3)CC1	inactive	inactive	inactive
C[C@H]1CN([C@@H](C)CO)C(=O)c2cc(NS(=O)(=O)c3ccc(F)cc3)ccc2O[C@@H]1CN(C)S(=O)(=O)c1cn(C)cn1	inactive	inactive	inactive
C[C@@H]1CN([C@H](C)CO)C(=O)CCCn2nncc2CO[C@H]1CN(C)C(=O)Nc1cccc2ccccc12	inactive	inactive	inactive
C[C@@H]1CCCCO[C@H](CN(C)C(=O)CCC(F)(F)F)[C@@H](C)CN([C@H](C)CO)C(=O)c2cc(NC(=O)Nc3ccccc3)ccc2O1	inactive	inactive	inactive

Structure (SMILES)	cytotoxicity call (HSkMC)	cytotoxicity call (HepG2)	growth inhibition call (S. aureus RN4220)
CC(=O)O[C@H]1C[C@@]2(C)[C@@H](C[C@@H](O)[C@H]3[C@@]4(C)CC[C@@H](O)[C@@H](C)[C@H]4CC[C@@]32C)C1=C(CCC=C(C)C)C(=O)O	inactive	inactive	active
Cc1noc(C)c1NC(=O)N(C)C[C@@H]1OCCCC[C@@H](C)Oc2ccc(NC(=O)Nc3cccc4ccccc34)cc2C(=O)N([C@H](C)CO)C[C@@H]1C	inactive	inactive	inactive
COCC#Cc1cnc2c(c1)C(=O)N([C@H](C)CO)C[C@@H](C)[C@H](CN(C)C(=O)CN1CCOCC1)O2	inactive	inactive	inactive
C[C@@H]1CN([C@H](C)CO)C(=O)c2cc(NC(=O)CCCCCC(=O)Nc3ccccc3N)ccc2O[C@@H]1CN(C)Cc1ccc(Cl)c(Cl)c1	inactive	inactive	inactive
CCc1nc2ccc(C(=O)NCCOc3ccc(OC)cc3)cn2c1N(CC)Cc1cccc(Br)c1	inactive	inactive	inactive
C[C@H]1CN([C@@H](C)CO)C(=O)c2cccc(NS(=O)(=O)c3cn(C)cn3)c2O[C@H]1CN(C)C(=O)NC1CCCCC1	inactive	inactive	inactive
COCCN1CCN(C)C2(CCN(C(=O)c3csnn3)CC2)C1=O	inactive	inactive	inactive
C[C@H](CO)N1C[C@H](C)[C@H](CN(C)CC2CCCCC2)Oc2ccc(NC(=O)Nc3cccc4ccccc34)cc2CC1=O	inactive	inactive	inactive
COc1ccc(-n2nc(CCC(=O)N(C)O)cc2-c2ccc(Cl)cc2)cc1	inactive	active	inactive
Cc1noc(C)c1S(=O)(=O)N(C)C[C@H]1Oc2ccc(NC(=O)NC(C)C)cc2CC(=O)N([C@H](C)CO)C[C@@H]1C	inactive	inactive	inactive
C[C@@H]1CN([C@H](C)CO)C(=O)c2cc(NS(=O)(=O)c3ccc(Cl)cc3)ccc2O[C@@H]1CN(C)Cc1ccc(Oc2ccccc2)cc1	active	active	inactive
C[C@@H]1CN([C@H](C)CO)C(=O)c2cc(NS(=O)(=O)c3ccccc3)ccc2O[C@@H](C)CCCCO[C@H]1CN(C)C(=O)Nc1ccc2c(c1)OCO2	inactive	inactive	inactive
CC(C)CC#Cc1ccc2c(c1)O[C@H](CN(C)Cc1cncnc1)[C@@H](C)CN([C@H](C)CO)S2(=O)=O	inactive	inactive	inactive
C[C@@H]1CCCCO[C@H](CN(C)S(=O)(=O)c2ccc(F)cc2)[C@H](C)CN([C@@H](C)CO)C(=O)c2cc(NS(C)(=O)=O)ccc2O1	inactive	inactive	inactive
C[C@@H]1CN([C@H](C)CO)C(=O)c2cc(NC(=O)CCCCCC(=O)Nc3ccccc3N)ccc2O[C@@H](C)CCCCO[C@@H]1CN(C)C(=O)Cc1ccccc1	inactive	inactive	inactive
CC[C@H](NC(=O)[C@H](C)NC)C(=O)N1C[C@@H](O)C[C@H]1Cc1c(-c2[nH]c3cc(F)ccc3c2C[C@@H]2C[C@H](O)CN2C(=O)[C@H](CC)NC(=O)[C@H](C)NC)[nH]c2cc(F)ccc12	inactive	inactive	inactive
O=C(C[C@@H]1CC[C@H]2[C@@H](COC[C@H](O)CN2S(=O)(=O)c2ccccc2)O1)N1CCOCC1	inactive	inactive	inactive
Cc1ccc(S(=O)(=O)Nc2ccc3c(c2)C(=O)N([C@H](C)CO)C[C@H](C)[C@H](CN(C)S(=O)(=O)c2ccc(F)cc2)O3)cc1	inactive	inactive	inactive
CO[C@H](CN(C)S(=O)(=O)c1ccc(F)cc1)[C@@H](C)CN([C@H](C)CO)S(=O)(=O)c1cccc(Cl)c1	inactive	inactive	inactive

Structure (SMILES)	cytotoxicity call (HSkMC)	cytotoxicity call (HepG2)	growth inhibition call (S. aureus RN4220)
O=C(C[C@@H]1C=C[C@H](NC(=O)CN2CCOCC2)[C@@H](CO)O1)NCCc1ccccc1	inactive	inactive	inactive
COC(=O)c1cccc(OC(N)=O)c1	inactive	inactive	inactive
CC(=O)NCC(=O)NS(=O)(=O)c1ccccc1	inactive	inactive	inactive
COc1ccc(NC(=O)Nc2ccc3c(c2)C(=O)N([C@@H](C)CO)C[C@@H](C)[C@H](CN(C)CC2CCCCC2)OCCCC[C@@H](C)O3)cc1	inactive	inactive	inactive
C[C@H]1CCCCO[C@H](CN(C)Cc2ccc(C(=O)O)cc2)[C@@H](C)CN([C@@H](C)CO)C(=O)c2cc(NS(=O)(=O)c3ccc(Cl)cc3)ccc2O1	inactive	inactive	inactive
C[C@@H]1CN([C@@H](C)CO)C(=O)c2cc(NS(=O)(=O)c3cn(C)cn3)ccc2O[C@@H]1CN(C)S(=O)(=O)c1cccs1	inactive	inactive	inactive
CCCC(=O)Nc1ccc2c(c1)C(=O)N(C)[C@H]1CC[C@@H](CC(=O)NCCN3CCCCC3)O[C@H]1CO2	inactive	inactive	inactive
CCCCC/C=C\C=C\CCCCCCCCC(=O)O	inactive	inactive	inactive
COc1ccc(CN(C)C[C@H]2OCCCC[C@@H](C)Oc3ccc(NC(=O)c4ccccc4)cc3C(=O)N([C@H](C)CO)C[C@H]2C)cc1	inactive	inactive	inactive
C[C@H](CO)N1C[C@H](C)[C@@H](CN(C)Cc2ccc(C(=O)Nc3ccccc3N)cc2)OCCCC[C@H](C)Oc2ccc(N(C)C)cc2C1=O	inactive	inactive	inactive
Cc1cccc(Nc2ccncc2S(=O)(=O)NC(=O)NC(C)C)c1	inactive	inactive	inactive
C[C@@H]1CN([C@H](C)CO)C(=O)c2c(c3ccccc3n2C)-c2ccccc2CO[C@H]1CN(C)Cc1ccc(O)cc1	inactive	inactive	inactive
CCCCCCCCCCNc1cc(CO)c2cc[nH]c2c1	inactive	inactive	inactive
C[C@@H]1CCCCO[C@@H](CN(C)C(=O)Cc2ccccc2)[C@H](C)CN([C@@H](C)CO)C(=O)c2cc(NC(=O)NC3CCCCC3)ccc2O1	inactive	inactive	inactive
Cc1nc2ccc([N+](=O)[O-])cc2s1	inactive	inactive	inactive
COc1cc(C=Cc2ccc(O)cc2)cc(OC)c1	inactive	active	active
C[C@@H]1CN([C@H](C)CO)C(=O)Cc2cc(NC(=O)C3CCCCC3)ccc2O[C@@H]1CN(C)C(=O)Nc1cccc2ccccc12	inactive	inactive	inactive
C[C@@H]1CN([C@@H](C)CO)C(=O)c2cc(NC(=O)Nc3ccc(C(F)(F)F)cc3)ccc2O[C@@H](C)CCCCO[C@@H]1CN(C)C(=O)CCCN(C)C	inactive	inactive	inactive
